About 5,800 (2.1%) of roughly 270,000 compounds were called active. This list was built around the results that the source calls inconclusive (neither active nor inactive); the mix of calls is not that of the screen. Calls follow the shape of the dose curve; as a rule, active = well fitted inhibition curve with a large enough effect; inconclusive = small, poorly fitted or top-dose-only effect; inactive = flat fitted curve, though single readings scatter. A potency beside an inconclusive call is a rough fit, not a confirmed value.
Biological target: Microtubule-associated protein tau (Homo sapiens) (UniProt P10636)
Sequence of UniProt P10636 (P10636 whole entry, looked up): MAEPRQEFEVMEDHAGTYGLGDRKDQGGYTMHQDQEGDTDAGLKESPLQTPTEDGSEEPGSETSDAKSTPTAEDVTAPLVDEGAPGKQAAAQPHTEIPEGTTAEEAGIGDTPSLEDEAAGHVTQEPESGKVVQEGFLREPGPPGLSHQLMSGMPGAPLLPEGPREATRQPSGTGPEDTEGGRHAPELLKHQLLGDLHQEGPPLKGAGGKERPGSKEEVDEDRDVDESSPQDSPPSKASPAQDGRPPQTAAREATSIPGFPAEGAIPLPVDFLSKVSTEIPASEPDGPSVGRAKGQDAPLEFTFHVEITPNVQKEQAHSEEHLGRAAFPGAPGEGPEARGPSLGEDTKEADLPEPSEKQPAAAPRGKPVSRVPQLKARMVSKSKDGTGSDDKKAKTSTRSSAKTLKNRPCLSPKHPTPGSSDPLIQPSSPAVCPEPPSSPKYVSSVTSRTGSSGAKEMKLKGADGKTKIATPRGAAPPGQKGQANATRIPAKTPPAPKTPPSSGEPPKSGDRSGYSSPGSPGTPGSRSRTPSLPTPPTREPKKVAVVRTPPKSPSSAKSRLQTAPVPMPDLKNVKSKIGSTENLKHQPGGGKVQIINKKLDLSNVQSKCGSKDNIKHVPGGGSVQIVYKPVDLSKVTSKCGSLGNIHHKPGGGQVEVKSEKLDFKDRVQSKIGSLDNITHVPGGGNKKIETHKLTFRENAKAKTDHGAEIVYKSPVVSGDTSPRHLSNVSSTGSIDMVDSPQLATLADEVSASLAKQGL
Experiment: qHTS for Inhibitors of Tau Fibril Formation, Thioflavin T Binding; also: nearly all actives have a fitted effect of over 55% in size
Settings: recombinant tau K18 P301L (four-repeat tau fragment), heparin-induced fibrillization, ThT fluorescence; series mostly up to 57.4 µM; activity, negative = inhibition: at the top concentration
Procedure, shortened: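 Aggregation was driven by heparin (20 uM final) acting on recombinant tau […] bearing P301L in 100 mM sodium acetate pH 7; fibrils were detected with Thioflavin T.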
% is scaled to controls: 0 for no effect and ±100 for the full control effect; potency is read from the fitted curve at half-maximal effect; tags tell the direction and shape of the fitted curve.

| Structure (SMILES) | Potency | activity, negative = inhibition |
| --- | --- | --- |
| N/C(=N\OC(=O)CCCOc1ccccc1)c1ccc([N+](=O)[O-])cc1 | inconclusive: 3.55 µM [inhibitor, full curve, poor fit] | – |
| Cc1ccccc1-c1nc(CS(=O)(=O)CC(=O)N2CCN(c3ccccc3)CC2)c(C)o1 | inconclusive: 31.6 µM [inhibitor, partial curve] | – |
| S=C(Nc1ccccc1)N1CCN(c2ccc(N3CCOCC3)nn2)CC1 | inconclusive: 14.1 µM [inhibitor, partial curve] | – |
| CCOC(=O)c1cnc2c(N=Nc3ccccc3)c(N)nn2c1N | active: 2.51 µM | – |
| CCCN(CCC)CCCNC(=O)C1CCCN(S(=O)(=O)c2cccc3nsnc23)C1 (stereo not given) | – | inactive: 3.13% |
| Cc1ccc(C)c(S(=O)(=O)C(C#N)c2nc3ccccc3nc2N2CCCC2)c1 (stereo not given) | inconclusive: 15.8 µM [inhibitor, partial curve] | – |
| COc1ccccc1N1CCN(C(c2ccc(N(C)C)cc2)c2nnnn2CCc2ccccc2)CC1 (stereo not given) | inconclusive: 15.8 µM [inhibitor, single point] | – |
| CC(=O)c1cccc(NC(=O)C2CCCN(c3nnc(-n4cccc4)s3)C2)c1 (stereo not given) | – | inactive: -12.3% |
| COc1cc(C2N=C(N)Nc3nc4ccccc4n32)ccc1OCCC(C)C (stereo not given) | – | inactive: -9.87% |
| CCC(CC)c1nnc(NC(=O)c2ccc([N+](=O)[O-])cc2)s1 | – | inactive: -16.4% |
| CNC(=S)NCCC(c1ccccc1)c1ccccc1 | – | inactive: 1.85% |
| Nc1nnc(SCC(=O)c2cccc([N+](=O)[O-])c2)s1 | inconclusive: 10 µM [inhibitor, partial curve] | – |
| CCOC(=O)c1c(N)sc2c1CCS(=O)(=O)C2 | inconclusive: 39.8 µM [inhibitor, single point] | – |
| CCc1ccccc1NC(=O)c1ccc2nc(CCc3ccccc3)oc2c1 | inconclusive: 3.16 µM [inhibitor, full curve] | – |
| Cc1ccc(C(=O)COC(=O)C(CC(C)C)NC(=O)C2CCC(C)CC2)cc1 (stereo not given) | – | inactive: 7.47% |
| S=C1SCN(Cc2ccccn2)CN1Cc1ccco1 | inconclusive: 35.5 µM [inhibitor, partial curve] | – |
| CCC(=O)N1CCc2cc(Br)cc(S(=O)(=O)N3CCCC(C(=O)Nc4cccc(Cl)c4C)C3)c21 (stereo not given) | – | inactive: 9.9% |
| CCCCNC(=O)CCn1c(=O)c2ccccc2n(Cc2ccccc2C#N)c1=O | – | inactive: -2.99% |
| Cc1ccc(NC(=S)NC(=O)c2sc3ccccc3c2Cl)c(C(=O)O)c1 | inconclusive: 17.8 µM [inhibitor, partial curve] | – |
| COC(=O)c1sc(NC(=O)COc2cccc(C)c2)nc1C | inconclusive: 14.1 µM [inhibitor, partial curve] | – |
| CCc1nnc(N2CCN(c3ncnc4c3oc3ccccc34)CC2)s1 | inconclusive: 1.78 µM [inhibitor, partial curve] | – |
| COc1ccc(C(=O)N2CC(=O)Nc3ccc(F)cc3C2c2ccc(F)cc2)c(OC)c1 (stereo not given) | – | inactive: -13.2% |
| CC(Oc1ccccc1)C(=O)Nc1oc(-c2ccco2)c(-c2ccco2)c1C#N (stereo not given) | inconclusive: 39.8 µM [inhibitor, single point] | – |

| Structure (SMILES) | Potency | activity, negative = inhibition |
| --- | --- | --- |
| Cc1cccc(-n2cnc(C(=O)NNC(=S)Nc3ccc(Cl)cc3)c2)n1 | inconclusive: 17.8 µM [inhibitor, partial curve] | – |
| COc1ccc(/C=C/c2nc(C#N)c(NCCc3ccc(OC)c(OC)c3)o2)cc1OC | inconclusive: 1.12 µM [inhibitor, full curve] | – |
| Cc1c(-c2nc(N)nc(Nc3ccccc3)n2)oc2ccccc12 | inconclusive: 39.8 µM [activator, single point] | – |
| Cc1ccc(-c2csc(NC(=O)c3ccc(C)o3)n2)cc1 | inconclusive: 4.47 µM [inhibitor, partial curve] | – |
| CCOC(=O)/C(=N\Nc1ccccc1Cl)N1CCN(Cc2ccccc2)CC1 | inconclusive: 22.4 µM [inhibitor, single point] | – |
| CC(C)CC(=O)Nc1ccc(C(=O)OCc2cc(=O)n3nc(C(C)C)sc3n2)cc1 | – | inactive: -2.74% |
| Cn1c(/C=C/c2ccccc2)nc2ccccc21 | inconclusive: 10 µM [inhibitor, partial curve] | – |
| CCOC(=O)/C(=N\Nc1ccc(OC)cc1)c1csc(Nc2ccccc2)n1 | inconclusive: 14.1 µM [inhibitor, partial curve] | – |
| COc1ccc(C[C@@H]2CN3C(=NC[C@@H]3C)N2C[C@H](C)NC(=O)CCC2CCCCC2)cc1 | – | inactive: -15.7% |
| NCCC[C@@H](CC(=O)N[C@@H]1CCCC[C@H]1C(=O)N[C@H](CC(=O)N[C@@H](CCC(=O)O)CC(=O)O)Cc1ccccc1)NC(=O)C[C@H](Cc1ccccc1)NC(=O)[C@@H]1CCCC[C@H]1N | – | inactive: -0.743% |
| COc1ccc(NC2C=CS(=O)(=O)C2)c(OC)c1 (stereo not given) | inconclusive: 35.5 µM [inhibitor, single point] | – |
| CC(C)n1c(=O)[nH]c2ccccc21 | – | inactive: -5.32% |
| Cc1ccccc1NC(NC(=O)OCCn1c([N+](=O)[O-])cnc1C)C(Cl)(Cl)Cl (stereo not given) | – | inactive: -0.935% |
| C/C(=C\c1ccco1)C1C(C#N)=C(N)Oc2n[nH]c(-c3ccccc3)c21 (stereo not given) | inconclusive: 25.1 µM [inhibitor, partial curve] | – |
| COc1ccc(/C(C)=N/NC(=O)c2ccc(CSc3cccc4cccnc34)cc2)cc1OC | inconclusive: 0.282 µM [inhibitor, full curve] | – |
| O=C(NCc1cccnc1)C1CCN(Cc2cc3ccccc3n2Cc2cccc(Cl)c2)CC1 | – | inactive: -15.4% |
| Cc1cc(=O)[nH]c(SCC(=O)/C=C2\N(C)c3ccccc3C2(C)C)n1 | inconclusive: 25.1 µM [inhibitor, single point] | – |
| COc1ccc(C(=O)CNC2=NCCC2)cc1 | – | inactive: -6.97% |
| COc1ccc(NCc2nnc(SCC(=O)N3CCCc4ccccc43)n2C)cc1 | – | inactive: -2.21% |
| CCOc1ccc(N(CCCCO)C(=S)NC(=O)c2ccc(C)c(Br)c2)cc1 | inconclusive: 31.6 µM [inhibitor, single point] | – |
| Cc1ccc(C(=O)N/N=C/c2ccc3c(c2)OCO3)o1 | inconclusive: 17.8 µM [inhibitor, partial curve] | – |
| COC(=O)C1=CN(c2cccc(C)c2)C=C(C(=O)OC)C1c1cc(OC)c(O)c([N+](=O)[O-])c1 | active: 15.8 µM | – |

From PubChem BioAssay AID1460 (National Center for Advancing Translational Sciences (NCATS), 2008)
